This note sets out measurements from PubChem BioAssay AID1745853 (National Center for Advancing Translational Sciences (NCATS), 2022).

Some of the results follow. The main result of the screen is listed elsewhere. These columns were measured beside it and carry no call.

Common to all, as to assay: Primary Screen for Target Class Profiling of Small Molecule Inhibitors of Methyltransferases
The target in experiment [1] is Glycine N-methyltransferase (Homo sapiens) (UniProt Q14749). As to conditions: purified enzyme, MTase-Glo SAH luminescence; measured here: GNMT inhibition; at 40 µM; stronger effect = lower value. The gist of the method:
(§1)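 Each enzyme was assayed with SAM and its substrate. SAH formation detected by MTase-Glo luminescence; single-point 40 uM screen[…].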

The target in experiment [2] is Guanidinoacetate N-methyltransferase (Homo sapiens) (UniProt Q14353). The conditions noted are these: purified enzyme, MTase-Glo SAH luminescence; measured here: GAMT inhibition; at 40 µM; stronger effect = lower value. The method in brief:
as §1

Experiment [3] addresses Histamine N-methyltransferase (Homo sapiens) (UniProt P50135). As to conditions: purified enzyme, MTase-Glo SAH luminescence; measured here: HNMT inhibition; at 40 µM; stronger effect = lower value. The method in brief:
as §1

The target in experiment [4] is Nicotinamide N-methyltransferase (Homo sapiens) (UniProt P40261). The conditions noted are these: purified enzyme, MTase-Glo SAH luminescence; measured here: NNMT inhibition; at 40 µM; stronger effect = lower value. The method in brief:
as §1

The target of experiment [5] is Phenylethanolamine N-methyltransferase (Homo sapiens) (UniProt P11086). As to conditions: purified enzyme, MTase-Glo SAH luminescence; measured here: PNMT inhibition; at 40 µM; stronger effect = lower value. The gist of the method: as §1
% is scaled to controls: 0 for no effect and ±100 for the full control effect.

As for `CCC(C)NC(=O)c1ccc2c(=O)n(CCC(C)C)c3nn(Cc4cccc(C)c4)c(=O)n3c2c1` (stereo not given), the activity change, negative = inhibition in experiment [1] was determined as 3.44%; in experiment [2], 0%; in experiment [3] it was 8.38%; in experiment [4] it was 3.25%; in experiment [5], 6.7%.

In the case of `Cc1cc(C)cc(NC(=O)CSc2nnc3n(CCCOC(C)C)c(=O)c4ccccc4n23)c1`, the activity change, negative = inhibition was -1.15% in experiment [1]; 0% in experiment [2]; 3.46% in experiment [3]; -3.35% in experiment [4]; 2.17% in experiment [5].

For the molecule `COC(=O)c1ncn2c1C(=O)N(c1cccc(C)c1C)C(C)(C(=O)NC1CCCC1)C2` (stereo not given), the activity change, negative = inhibition in experiment [1] is -0.834%; in experiment [2] it was 5.55%; in experiment [3], -4.49%; in experiment [4], 0.995%; in experiment [5], -1.49%.

Turning to `CC1(C)CCCC2(C)C1C(=O)C=C(C(=O)O)C2(O)C(=O)O` (stereo not given), the activity change, negative = inhibition is 0% in experiment [1]; -5.62% in experiment [2]; 6.61% in experiment [3]; -19.9% in experiment [4]; -11.1% in experiment [5].

With `Cc1nc(C2CC(O)C2)cc(N2CCN(c3nc4ccccc4s3)CC2)n1` (stereo not given), the activity change, negative = inhibition is -12.8% in experiment [1]; -11.5% in experiment [2]; -15.8% in experiment [3]; -16.6% in experiment [4]; 4.97% in experiment [5].

Take `Cc1cc(C)cc(NC(=O)Cn2c(-c3cnccn3)nc(C)c(C)c2=O)c1`: the activity change, negative = inhibition is -11.4% in experiment [1]; -8.81% in experiment [2]; -5.5% in experiment [3]; -9.72% in experiment [4]; -8.92% in experiment [5].

In the case of `CCC(CC)C(=O)N1CCC2(CC1)C(=O)N(C)c1ccccc12`, the activity change, negative = inhibition was -7.9% in experiment [1]; -8.92% in experiment [2]; -3.87% in experiment [3]; -5.05% in experiment [4]; -6.1% in experiment [5].

For `CCCN1C(=O)c2c(C(=O)NCCc3ccc(Cl)cc3)ncn2CC1(C)C(=O)NCc1ccc(F)cc1` (stereo not given), the activity change, negative = inhibition in experiment [1] turned out to be 0.955%; in experiment [2], 0.967%; in experiment [3], 9.43%; in experiment [4], 8.86%; in experiment [5], 12.9%.

As for `CCc1c(C)nn(CCNC(=O)c2cc(S(N)(=O)=O)ccc2F)c1C`, the activity change, negative = inhibition is -0.967% in experiment [1]; -1.65% in experiment [2]; 0.813% in experiment [3]; -1.34% in experiment [4]; -0.093% in experiment [5].

Regarding `O=C(Cc1ccccn1)N1CCCC(C(=O)N2CCC(N3CCCC3=O)CC2)C1` (stereo not given), the activity change, negative = inhibition in experiment [1] is -1.05%; in experiment [2] it was -5.87%; in experiment [3], 0.526%; in experiment [4] it was -7.79%; in experiment [5], -3.54%.

As for `Cc1ccc(Cn2c(=O)c3ccc(C(=O)NC(C)C)cc3n3c(=O)n(Cc4cccc(C)c4)nc23)cc1`, the activity change, negative = inhibition in experiment [1] worked out at 5.21%; in experiment [2] it was 4.73%; in experiment [3], 7%; in experiment [4], 4.26%; in experiment [5], 3.28%.

For the molecule `COCCNC(=O)CCn1ccc2cc(S(=O)(=O)N3CCCCC3)ccc21`, the activity change, negative = inhibition amounted to 1.69% in experiment [1]; 3.51% in experiment [2]; 0.854% in experiment [3]; 3.6% in experiment [4]; 1.74% in experiment [5].

For the molecule `CCOc1ccccc1NS(=O)(=O)c1ccc2[nH]c(=O)[nH]c2c1`, the activity change, negative = inhibition in experiment [1] is 0.251%; in experiment [2] it was 0%; in experiment [3], 1.69%; in experiment [4] it was -3.12%; in experiment [5], -7.55%.

For the molecule `Cc1cccc(NC(=O)Cn2nc3n(CC(C)C)c(=O)c4ccc(C(=O)NCC(C)C)cc4n3c2=O)c1`, the activity change, negative = inhibition in experiment [1] came to 4.27%; in experiment [2], 0.136%; in experiment [3], 5.21%; in experiment [4], 3.04%; in experiment [5], 5.51%.

With `CCCC1c2ccc(C)n2CCN1C(=O)Nc1cc(Cl)ccc1C(=O)OC` (stereo not given), the activity change, negative = inhibition in experiment [1] is -18.6%; in experiment [2], 1.06%; in experiment [3] it was -12.8%; in experiment [4], -6.42%; in experiment [5], -8.88%.

Regarding `Cc1nc(N2CCN(C(=O)c3ccco3)CC2)c2c3c(sc2n1)CCCC3`, the activity change, negative = inhibition in experiment [1] was -35%; in experiment [2], -3.13%; in experiment [3] it was -17.7%; in experiment [4] it was -49.6%; in experiment [5], -18.6%.

In the case of `Cc1cccc(N2CCN(C(=O)Cn3ncc4ccc(Cl)cc43)CC2)c1C`, the activity change, negative = inhibition in experiment [1] worked out at 0.061%; in experiment [2] it was 0%; in experiment [3], 2.69%; in experiment [4] it was 8.82%; in experiment [5] it was 0.686%.

As for `COc1ccccc1CNC(=O)C1(C)Cn2c(cc3ccccc32)C(=O)N1Cc1cccc(F)c1` (stereo not given), the activity change, negative = inhibition came to 6.58% in experiment [1]; 4.89% in experiment [2]; 9.79% in experiment [3]; 9.02% in experiment [4]; 2.85% in experiment [5].

For the molecule `Cn1c(=O)n(C)c2cc(S(=O)(=O)N(Cc3ccco3)C(=O)c3cccnc3)ccc21`, the activity change, negative = inhibition was found to be 5.52% in experiment [1]; 0.431% in experiment [2]; 8.99% in experiment [3]; 18.3% in experiment [4]; 5.93% in experiment [5].

On to `Cc1cc2[nH]c(=O)[nH]c2cc1S(=O)(=O)NCCc1ccccc1`, for which the activity change, negative = inhibition in experiment [1] is 2.4%; in experiment [2], 0%; in experiment [3], -3.04%; in experiment [4], -5.82%; in experiment [5], -8.95%.

With `CC(C)n1c(=O)c2ccc(C(=O)NC3CCCC3)cc2n2c(=O)n(Cc3ccc(F)cc3Cl)nc12`, the activity change, negative = inhibition is 0.338% in experiment [1]; 0% in experiment [2]; 5.69% in experiment [3]; 2.89% in experiment [4]; 1.94% in experiment [5].

As for `CC(C)c1ccc(N2C(=O)c3cc4sccc4n3CC2(C)C(=O)NC2CCCC(C)C2C)cc1` (stereo not given), the activity change, negative = inhibition is 0.717% in experiment [1]; 0.386% in experiment [2]; 1.23% in experiment [3]; 2.41% in experiment [4]; -1.59% in experiment [5].

Regarding `CCn1ncc(CN2CCCC23CCN(c2ccc(C(F)(F)F)cn2)CC3)c1C`, the activity change, negative = inhibition in experiment [1] was -5.87%; in experiment [2], -5.46%; in experiment [3] it was -7.98%; in experiment [4], -11%; in experiment [5] it was 0.403%.

For `COc1cc(N2CCOCC2)ccc1Nc1ncc(F)c(Nc2ccccc2NS(C)(=O)=O)n1`, the activity change, negative = inhibition is -52.1% in experiment [1]; -0.011% in experiment [2]; 7.57% in experiment [3]; -14.1% in experiment [4]; -11.5% in experiment [5].

`CCOc1ccc(N2C(=O)CSc3c(c4ccccc4n3C)C2C(=O)NCCC(C)C)cc1` (stereo not given): the activity change, negative = inhibition was 4.2% in experiment [1]; 0% in experiment [2]; -0.952% in experiment [3]; -1.31% in experiment [4]; 5.02% in experiment [5].

As to `N[C@@H](Cc1cc(I)c(Oc2ccc(O)c(I)c2)c(I)c1)C(=O)O`, the activity change, negative = inhibition in experiment [1] is -8.9%; in experiment [2], -34.6%; in experiment [3], -9.85%; in experiment [4], -52.5%; in experiment [5], -18.2%.

For the molecule `COC(=O)c1cc(OC)cc(OC)c1C(=O)c1c(OC)cc2c(c1O)C1CCC(O)C(C)(O2)O1` (stereo not given), the activity change, negative = inhibition in experiment [1] is -1.74%; in experiment [2], 4.6%; in experiment [3] it was 2.4%; in experiment [4], -10.2%; in experiment [5], 2.17%.

Consider `O=C1CC(c2ccccc2)NCCCCCCN1` (stereo not given), for which the activity change, negative = inhibition is -2.41% in experiment [1]; -1.95% in experiment [2]; 0.453% in experiment [3]; -1.82% in experiment [4]; -9.04% in experiment [5].

Consider `O=c1cc(N2CCOCC2)oc2c(NCC3CCOCC3)nccc12`, for which the activity change, negative = inhibition in experiment [1] is -4.93%; in experiment [2], -1.67%; in experiment [3], -1.32%; in experiment [4] it was -9.62%; in experiment [5] it was -12.8%.

Consider `CC(C)c1ccc2c(c1)C(O)CC1C(C)(C(=O)O)CCCC21C` (stereo not given), for which the activity change, negative = inhibition in experiment [1] was -0.998%; in experiment [2], -10.4%; in experiment [3] it was 3.46%; in experiment [4], -19%; in experiment [5] it was -2.95%.
